± gives the standard deviation. This is a selection; strong and weak results do not stand in their true shares.
The sequences below were run on MIWI (PIWIL1) piRISC loaded with piRNA #1 (30 nt) (assay: pre-steady-state target cleavage rate (min^-1); MIWI and MILI are mouse PIWI proteins and EfPiwi is from a freshwater sponge; tags in brackets are library labels; higher = faster piRNA-guided slicing of the target). Conditions: guide: piRNA #1 5'p-UGAGGUAGUAGGUUGUAUAGUAUCCAGAGG; auxiliary factor: 500 nM mouse GTSF1.
Method in brief: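 Reactions were run for 0–8 or 0–960 min at 33 °C in HEPES–potassium acetate buffer, combining 1 nM active affinity-purified piRISC with one synthetic guide, […] transcribed, DNA-blocked target RNA library and, in some cases, 500 nM GTSF1 partner protein. Sequencing of uncleaved targets followed, with normalisation to depth and to weakly complementary targets. Three trials were pooled, k3 was capped at 0.0001 min^-1, and the pre-steady-state cleavage rate was taken from a burst-and-steady-state fit.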
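Further: 1 nM active piRISC with 0.1 nM target library at 33 °C single turnover.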

Sequence	pre-steady-state target cleavage rate
GGAGACCUUUCUAUACAACCUACUACCUGA	0.47 ± 0.045
GGAGAGGAUACUAUUCAACCUACUACGUCA	0.421 ± 0.036
GGAGACCUAACUAUCCAACCUACUACCUCA	0.993 ± 0.086
GGAGACGAUACUAUACAACCUACUAGGAGA [g6:g24:cont:t1A]	0.00718 ± 0.0049
GCUCUGGAAACUUUACAACCUACUACCUCA	1.59 ± 0.12
GGAGACCAUACUAUACAACCAACUACCUCA	0.0989 ± 0.011
GCUCUGGAUACUAUACAACCUACUACCAUCA	1.66 ± 0.11
GGAGUGGAUACUAUACAACCUACUACGACA	0.113 ± 0.017
GGAGACCAUACUAUACAACCUUCUACGUCA	0.309 ± 0.039
GGAGUGGAACUAUACAACCUACUACCUCA	1.38 ± 0.096
GGUCUGGAUACAAUACAACCUACUUCCUCA	0.204 ± 0.044
GCUCUGGAUACUAUAGAUCCUACUACCUCA	0.843 ± 0.058
GGAGAGGAUACUAUUACAACCUACUACCUCA	1.23 ± 0.07
GGAGACCAUAAUAUACAACCUACUACCUCA	0.791 ± 0.093
GGAGACCUAUCUAUAUCAACCUACUACCUCA	0.00322 ± 0.0028
GGAGAGGAUACAUACAACCUACUACCUCA	1.11 ± 0.085
GGACUGGAUACUAUACAACCUUCUAGCUCA	0.00299 ± 0.0024
GGAGACCUAUCUAUACAACUUACUACCUCA	0.259 ± 0.019
CCUCUGGACACUAUACAACCUACUACCUCA	1.75 ± 0.091
GCUCUGGAUACUAUUCAACCUACUACCUCA	1.87 ± 0.11

Sequence	pre-steady-state target cleavage rate
GGAGUGGUAUCUAUACAACCUACUACCUCA	1.12 ± 0.062
CCUCUGGAUACUAUACUUGCUACUACCUCA	0.0866 ± 0.014
GGAGAGGAUACUAAACAACCUACUACCACA	0.78 ± 0.04
GCUCUGGAUACUAUACUACCUAGUACCUCA	0.396 ± 0.056
GCUCUGGAUACAAUACAUCCUACUACCUCA	1.38 ± 0.089
GCUCUGGAUACUUUUCAACCUACUACCUCA	1.28 ± 0.084
GGAGACGAUACUAUAGAACCUACUACCUCA	1.14 ± 0.066
GGAGACCUAUGUAUACAACCUACUACUUCA	0.3 ± 0.035
GGAGUGUGAUACUAUACAACCUACUACCUCA	1.81 ± 0.1
GGAGACGAUACUAUAGAACGUACUACCUCA	0.39 ± 0.035
GGUCUGGAUACUUUACAACCUACUUCCUCA	0.0036 ± 0.0016
GGUCUCGAUACUAUACAACCUACUAGCUCA	0.184 ± 0.028
CCUCUGGAUACUAUACAACCUACUACCUGCA	1.38 ± 0.098
CCUCUGGAUACUAUAGAACGUACUACCUCA	0.369 ± 0.041
GGAGACCUAUGAUAACAACCUAGUACCACA	< 0.0001
GGAGACCAUACUAUACAACCAAGUACCUCA	0.0146 ± 0.0021
GGACUGGAUUCUAUACAACCUUCUACCUCA	0.697 ± 0.044
GGAGACGAUACAAUACAACCUAGUACCUCA	0.3 ± 0.036
GGAGUGGAAACUAUACAACCUAGUACCUCA	0.458 ± 0.065
GGACUGGAUACUAUACUACCAACUACCUCA	0.0216 ± 0.0039

Reference: the supplement of paper PMC10338343
